# The supplement of paper PMC4967469
# IC50 is the fitted dose that halves viability relative to control wells, and lower means more sensitive; fits outside the tested doses are given as limits. AUC is the area under the same curve over the 256-fold range up to the top dose, as a fraction; the more sensitive the line, the further below 1. For some assays here: An inferred top dose comes from the curve model; the source does not state it.
# Assays:
# Assay in all cases: Viability of human cancer cell lines after 72 h of drug (GDSC screen)
# XMD15-27 = compound: C=CC(=O)Nc1ccc(C(=O)c2sc(Nc3ccc(N4CCN(C)CC4)cc3OC)nc2N)cc1 [XMD15-27]; conditions: top dose 10.24 µM; top dose inferred
# Description: (§1)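 Human cancer cell lines in 384-well plates, medium with 10% serum, drug for 72 h over a 256-fold dose range (nine 2-fold or five 4-fold steps up to the top dose). Adherent lines were fixed and stained with the nucleic acid dye Syto60, suspension lines read with resazurin; signal relative to control wells, capped at 0 and 100%. One two-parameter sigmoid per drug and line, fitted in a mixed model over all curves with the slope shared within a line.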
# Temsirolimus = compound: CO[C@H]1C[C@@H]2CC[C@@H](C)[C@@](O)(O2)C(=O)C(=O)N2CCCC[C@H]2C(=O)O[C@H]([C@H](C)C[C@@H]2CC[C@@H](OC(=O)C(C)(CO)CO)[C@H](OC)C2)CC(=O)[C@H](C)/C=C(\C)[C@@H](O)[C@@H](OC)C(=O)[C@H](C)C[C@H](C)/C=C/C=C/C=C/1C [Temsirolimus]; conditions: top dose 0.2 µM
# Description: as §1
# SL 0101-1 = compound: CC(=O)O[C@@H]1[C@@H](OC(C)=O)[C@@H](O)[C@H](Oc2c(-c3ccc(O)cc3)oc3cc(O)cc(O)c3c2=O)O[C@H]1C [SL 0101-1]; conditions: top dose 10 µM; top dose inferred
# Description: as §1
Cell Line,AUC (XMD15-27),IC50 (XMD15-27) [µM],AUC (Temsirolimus),IC50 (Temsirolimus) [nM],AUC (SL 0101-1),IC50 (SL 0101-1) [µM]
"A2058 (melanoma, adherent)",0.99,> 10.2,0.685,38.6,–,–
"ABC-1 (lung adenocarcinoma, adherent)",0.98,> 10.2,0.785,105,–,–
"ACHN (kidney, adherent)",0.97,> 10.2,0.866,> 200,–,–
"AN3-CA (endometrium, adherent)",0.985,> 10.2,0.637,31.2,–,–
"ATN-1 (T-cell lymphoblastic leukaemia, suspension)",0.976,> 10.2,0.614,25.2,–,–
"BB65-RCC (kidney, adherent)",0.983,> 10.2,0.421,7.36,–,–
"BE-13 (lymphoblastic leukaemia, suspension)",0.967,> 10.2,0.363,5.37,–,–
"HCC-366 (non-small cell lung carcinoma, adherent)",–,–,0.922,> 200,–,–
"HOS (osteosarcoma, adherent)",0.991,> 10.2,–,–,0.981,> 10
"HT-29 (large intestine, adherent)",0.971,> 10.2,–,–,0.988,> 10
"HT-144 (melanoma, adherent)",0.963,> 10.2,–,–,0.949,> 10
"HT-1197 (bladder, adherent)",0.985,> 10.2,–,–,0.985,> 10
"HUTU-80 (digestive system, adherent)",0.98,> 10.2,–,–,0.991,> 10
"HuP-T4 (pancreas, adherent)",0.968,> 10.2,–,–,0.969,> 10
"IHH-4 (thyroid, semi-adherent)",0.992,> 10.2,–,–,0.993,> 10
"JAR (urogenital system, adherent)",0.972,> 10.2,–,–,0.984,> 10
"JHU-011 (head and neck, adherent)",0.972,> 10.2,–,–,0.975,> 10
"K-562 (chronic myeloid leukaemia, suspension)",0.981,> 10.2,–,–,0.983,> 10
"KG-1 (acute myeloid leukaemia, suspension)",0.762,3.29,–,–,0.99,> 10
"KON (head and neck, adherent)",0.985,> 10.2,–,–,0.987,> 10
"KYSE-510 (oesophagus, adherent)",0.992,> 10.2,–,–,0.96,> 10
"LB771-HNC (head and neck, adherent)",0.982,> 10.2,–,–,0.978,> 10
"LB996-RCC (kidney, adherent)",0.983,> 10.2,–,–,0.936,> 10
"LK-2 (lung squamous cell carcinoma, adherent)",0.989,> 10.2,–,–,0.972,> 10

Cell Line,AUC (XMD15-27),IC50 (XMD15-27) [µM],AUC (Temsirolimus),IC50 (Temsirolimus) [nM],AUC (SL 0101-1),IC50 (SL 0101-1) [µM]
"LNCaP-Clone-FGC (prostate, adherent)",0.951,> 10.2,–,–,0.984,> 10
"LOXIMVI (melanoma, semi-adherent)",0.99,> 10.2,–,–,0.989,> 10
"LU-65 (large cell lung carcinoma, suspension)",0.983,> 10.2,–,–,0.986,> 10
"MCF7 (breast, adherent)",0.986,> 10.2,–,–,0.974,> 10
"MDA-MB-157 (breast, adherent)",0.988,> 10.2,–,–,0.937,> 10
"MDA-MB-231 (breast, adherent)",0.986,> 10.2,–,–,0.982,> 10
"MDA-MB-468 (breast, adherent)",0.979,> 10.2,–,–,0.977,> 10
"MFE-319 (endometrium, adherent)",0.989,> 10.2,–,–,0.981,> 10
"MKN1 (stomach, adherent)",0.985,> 10.2,–,–,0.958,> 10
"MOLM-13 (acute myeloid leukaemia, suspension)",0.956,> 10.2,–,–,0.975,> 10
"MZ7-mel (melanoma, adherent)",0.983,> 10.2,–,–,0.976,> 10
"NB7 (neuroblastoma, adherent)",0.986,> 10.2,–,–,0.986,> 10
"NCI-H358 (lung adenocarcinoma, adherent)",0.953,> 10.2,–,–,0.96,> 10
"NCI-H460 (large cell lung carcinoma, adherent)",0.99,> 10.2,–,–,0.959,> 10
"NCI-H522 (lung adenocarcinoma, adherent)",0.98,> 10.2,–,–,0.954,> 10
"NCI-H647 (non-small cell lung carcinoma, adherent)",0.939,> 10.2,–,–,0.976,> 10
"NCI-H1355 (lung adenocarcinoma, adherent)",0.978,> 10.2,–,–,0.939,> 10
"NCI-H1963 (small cell lung carcinoma, suspension)",–,–,0.974,> 200,–,–
"NCI-H2009 (lung adenocarcinoma, adherent)",0.986,> 10.2,–,–,0.987,> 10
"NCI-H2030 (lung adenocarcinoma, adherent)",0.962,> 10.2,–,–,0.98,> 10
"NCI-H2085 (lung adenocarcinoma, adherent)",0.986,> 10.2,–,–,0.981,> 10
"NUGC-3 (stomach, adherent)",0.984,> 10.2,–,–,0.946,> 10
"OAW-28 (ovary, adherent)",0.983,> 10.2,–,–,0.944,> 10
"OSC-19 (head and neck, adherent)",0.987,> 10.2,–,–,0.987,> 10

Cell Line,AUC (XMD15-27),IC50 (XMD15-27) [µM],AUC (Temsirolimus),IC50 (Temsirolimus) [nM],AUC (SL 0101-1),IC50 (SL 0101-1) [µM]
"OVCAR-3 (ovary, adherent)",0.987,> 10.2,–,–,0.949,> 10
"PA-1 (ovary, adherent)",0.932,> 10.2,–,–,0.979,> 10
"PANC-10-05 (pancreas, adherent)",0.982,> 10.2,–,–,0.953,> 10
"PC-3 (prostate, adherent)",0.975,> 10.2,–,–,0.939,> 10
"RERF-GC-1B (stomach, adherent)",0.951,> 10.2,–,–,0.985,> 10
"RH-41 (rhabdomyosarcoma, adherent)",0.992,> 10.2,–,–,0.96,> 10
"RS4-11 (leukaemia, suspension)",0.948,> 10.2,–,–,0.984,> 10
"SCC-15 (head and neck, adherent)",0.98,> 10.2,–,–,0.943,> 10
"SK-CO-1 (large intestine, adherent)",0.989,> 10.2,–,–,0.989,> 10
"SK-LU-1 (lung adenocarcinoma, adherent)",0.975,> 10.2,–,–,0.877,> 10
"SK-MEL-28 (melanoma, adherent)",0.988,> 10.2,–,–,0.975,> 10
"SK-OV-3 (ovary, adherent)",0.968,> 10.2,–,–,0.981,> 10
"SU-DHL-8 (B-cell lymphoma, suspension)",0.969,> 10.2,–,–,0.988,> 10
"SU-DHL-10 (B-cell lymphoma, suspension)",0.997,> 10.2,–,–,0.998,> 10
"SW620 (large intestine, adherent)",0.937,> 10.2,–,–,0.99,> 10
"SW900 (lung squamous cell carcinoma, adherent)",0.985,> 10.2,–,–,0.945,> 10
"TC-71 (Ewing sarcoma, adherent)",0.992,> 10.2,–,–,0.985,> 10
"TCCSUP (bladder, adherent)",0.984,> 10.2,–,–,0.954,> 10
"TE-10 (oesophagus, adherent)",0.988,> 10.2,–,–,0.978,> 10
"THP-1 (acute myeloid leukaemia, suspension)",0.977,> 10.2,–,–,0.991,> 10
"U031 (kidney, adherent)",0.977,> 10.2,–,–,0.969,> 10
"U-118-MG (glioma, adherent)",0.985,> 10.2,–,–,0.972,> 10
"VM-CUB-1 (bladder, adherent)",0.989,> 10.2,–,–,0.92,> 10
"huH-1 (liver, adherent)",0.984,> 10.2,–,–,0.983,> 10
